Source: paper PMC7865452
Where a chain is given by its changes, count along the chain named. Results are given in words; binding and its absence hold for the method and conditions named. Binding seen in cells or lysates may run through a third protein. Some results given as binding are weak or reduced against the parent protein; the word gives no strength. For some of these results: Where a sequence is shown, tags or fusion partners need not be part of it. One block for each substance: values may come before it.

The chains behind the UniProt entries cited, without tags or fusion partners.
UniProt O95292: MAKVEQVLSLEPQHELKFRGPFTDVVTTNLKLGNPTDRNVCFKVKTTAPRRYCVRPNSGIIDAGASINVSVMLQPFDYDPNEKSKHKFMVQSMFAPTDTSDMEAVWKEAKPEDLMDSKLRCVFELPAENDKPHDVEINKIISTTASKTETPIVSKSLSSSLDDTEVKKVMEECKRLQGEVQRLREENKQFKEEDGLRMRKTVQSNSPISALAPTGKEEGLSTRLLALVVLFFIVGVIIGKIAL
UniProt Q99816: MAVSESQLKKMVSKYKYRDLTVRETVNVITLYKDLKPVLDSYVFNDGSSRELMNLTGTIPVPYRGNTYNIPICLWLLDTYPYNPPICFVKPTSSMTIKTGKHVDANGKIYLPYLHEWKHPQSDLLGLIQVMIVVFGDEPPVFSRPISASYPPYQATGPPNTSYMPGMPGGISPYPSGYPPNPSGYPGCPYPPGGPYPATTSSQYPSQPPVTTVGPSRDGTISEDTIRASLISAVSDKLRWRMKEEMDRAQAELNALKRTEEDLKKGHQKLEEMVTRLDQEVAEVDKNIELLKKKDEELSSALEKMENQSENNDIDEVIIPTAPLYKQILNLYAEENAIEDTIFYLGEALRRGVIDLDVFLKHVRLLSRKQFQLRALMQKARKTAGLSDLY
UniProt O75340: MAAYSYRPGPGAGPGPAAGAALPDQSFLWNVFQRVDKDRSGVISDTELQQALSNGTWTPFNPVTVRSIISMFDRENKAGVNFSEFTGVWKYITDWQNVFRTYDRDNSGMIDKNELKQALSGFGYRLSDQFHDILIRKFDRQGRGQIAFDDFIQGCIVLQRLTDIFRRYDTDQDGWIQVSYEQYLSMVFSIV
UniProt P50995: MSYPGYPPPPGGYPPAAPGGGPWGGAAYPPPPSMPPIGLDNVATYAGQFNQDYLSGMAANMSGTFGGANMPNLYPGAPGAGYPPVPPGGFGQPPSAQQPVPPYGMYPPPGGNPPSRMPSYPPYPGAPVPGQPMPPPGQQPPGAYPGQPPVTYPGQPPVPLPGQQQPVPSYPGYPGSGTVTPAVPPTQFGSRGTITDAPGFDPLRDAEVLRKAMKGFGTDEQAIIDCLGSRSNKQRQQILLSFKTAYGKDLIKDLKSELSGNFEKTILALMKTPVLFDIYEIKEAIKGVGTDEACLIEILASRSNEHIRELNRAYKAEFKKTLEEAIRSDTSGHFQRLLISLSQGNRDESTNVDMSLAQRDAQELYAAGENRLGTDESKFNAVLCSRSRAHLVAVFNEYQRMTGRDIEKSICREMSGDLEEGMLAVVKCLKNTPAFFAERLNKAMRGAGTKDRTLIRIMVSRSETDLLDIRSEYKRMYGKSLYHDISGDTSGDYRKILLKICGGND
UniProt Q8WUM4: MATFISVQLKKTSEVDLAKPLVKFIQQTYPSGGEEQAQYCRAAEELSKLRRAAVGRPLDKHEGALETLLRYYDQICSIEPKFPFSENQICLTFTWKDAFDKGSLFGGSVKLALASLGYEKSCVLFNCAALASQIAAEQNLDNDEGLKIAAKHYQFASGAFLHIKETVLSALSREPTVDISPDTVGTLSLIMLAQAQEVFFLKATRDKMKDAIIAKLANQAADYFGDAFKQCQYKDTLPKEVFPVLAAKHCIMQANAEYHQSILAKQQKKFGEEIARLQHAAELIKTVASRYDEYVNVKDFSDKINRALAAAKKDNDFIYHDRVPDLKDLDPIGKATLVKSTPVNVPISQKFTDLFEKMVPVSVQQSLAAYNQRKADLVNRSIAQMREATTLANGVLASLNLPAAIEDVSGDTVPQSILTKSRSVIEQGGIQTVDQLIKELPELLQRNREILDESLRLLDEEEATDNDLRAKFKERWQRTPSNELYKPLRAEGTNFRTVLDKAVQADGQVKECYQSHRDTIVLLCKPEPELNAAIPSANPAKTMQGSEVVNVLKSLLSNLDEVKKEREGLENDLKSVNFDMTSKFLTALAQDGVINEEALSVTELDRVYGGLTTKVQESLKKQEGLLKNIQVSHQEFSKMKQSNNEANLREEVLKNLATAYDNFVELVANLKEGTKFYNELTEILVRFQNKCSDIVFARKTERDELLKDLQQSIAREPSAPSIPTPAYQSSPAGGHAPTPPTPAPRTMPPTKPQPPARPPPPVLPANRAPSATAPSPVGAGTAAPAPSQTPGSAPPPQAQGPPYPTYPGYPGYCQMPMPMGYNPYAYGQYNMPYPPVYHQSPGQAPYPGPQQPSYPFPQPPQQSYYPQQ
UniProt Q8NDC0: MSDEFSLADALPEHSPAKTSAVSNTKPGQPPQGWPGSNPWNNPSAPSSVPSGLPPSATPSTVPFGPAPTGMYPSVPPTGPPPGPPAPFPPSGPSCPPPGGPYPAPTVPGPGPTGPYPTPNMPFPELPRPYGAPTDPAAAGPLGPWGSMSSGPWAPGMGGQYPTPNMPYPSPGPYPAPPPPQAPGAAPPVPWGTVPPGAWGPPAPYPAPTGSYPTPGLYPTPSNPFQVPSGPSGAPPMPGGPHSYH

Tests used:
[1] = biological target: T1, GFP-fused CDIP1 (cell death-inducing p53 target protein 1) (human) (UniProt Q9H305); experiment: co-IP; cleared lysate of transfected HEK293 (HKM buffer, 0.2% Triton X-100); GST-fused GFP nanobody on glutathione beads; 100 uM CaCl2; overnight, 4 C; Western blot
T1 sequence: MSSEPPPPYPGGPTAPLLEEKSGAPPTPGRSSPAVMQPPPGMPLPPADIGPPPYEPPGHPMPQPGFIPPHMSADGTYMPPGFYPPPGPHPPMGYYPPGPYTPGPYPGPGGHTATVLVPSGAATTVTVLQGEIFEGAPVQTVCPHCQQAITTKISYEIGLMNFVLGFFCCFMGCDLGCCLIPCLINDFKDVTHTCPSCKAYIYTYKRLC

[2] = biological target: T1, GFP-fused CDIP1 (cell death-inducing p53 target protein 1) (human); experiment: co-IP; ALG-2 KO HEK293 cells co-expressing the GFP fusion and ALG-2; GFP nanobody; 10 uM CaCl2; Western blot
[3] = biological target: T1, GFP-fused CDIP1 (cell death-inducing p53 target protein 1) (human); experiment: co-IP; cleared lysate of transfected HEK293 (HKM buffer, 0.2% Triton X-100); GST-fused GFP nanobody on glutathione beads; 10 uM CaCl2; overnight, 4 C; Western blot
[4] = biological target: T2, GFP-CDIP1 Mut3 (F187A) (human) (UniProt Q9H305); experiment: as above
T2 sequence: T1 sequence with F187A

[5] = biological target: T3, GFP-CDIP1 Mut5 (F187A/D189A) (human) (UniProt Q9H305); experiment: as above
T3 sequence: T1 sequence with F187A, D189A

[6] = biological target: T4, GFP-CDIP1 Mut4 (D189A) (human) (UniProt Q9H305); experiment: as above
T4 sequence: T1 sequence with D189A

[7] = biological target: T5, GFP-CDIP1 Mut2 (deletion of residues 186 to 191) (human) (UniProt Q9H305); experiment: as above
T5 sequence: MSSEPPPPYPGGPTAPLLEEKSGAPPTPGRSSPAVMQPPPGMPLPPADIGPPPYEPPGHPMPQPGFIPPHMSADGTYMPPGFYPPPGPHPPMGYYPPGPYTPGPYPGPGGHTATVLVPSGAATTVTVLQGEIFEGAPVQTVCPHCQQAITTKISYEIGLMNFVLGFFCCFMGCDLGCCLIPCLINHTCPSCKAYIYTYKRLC

[8] = biological target: T1, GFP-fused CDIP1 (cell death-inducing p53 target protein 1) (human); experiment: co-IP; cleared lysate of transfected HEK293 (HKM buffer, 0.2% Triton X-100); GST-fused GFP nanobody on glutathione beads; 5 mM EGTA; overnight, 4 C; Western blot
[9] = biological target: T1, GFP-fused CDIP1 (cell death-inducing p53 target protein 1) (human); experiment: co-IP; ALG-2 KO HEK293 cells expressing the GFP fusion without ALG-2; GFP nanobody; 5 mM EGTA or 10 uM CaCl2; Western blot
[10] = biological target: T1, GFP-fused CDIP1 (cell death-inducing p53 target protein 1) (human); experiment: co-IP; ALG-2 KO HEK293 cells transfected with GFP-CDIP1, ALG-2 and Myc-tagged ESCRT-I subunits; GFP nanobody; 1 uM CaCl2; Western blot with antibodies against GFP, ALG-2 and Myc tag
[11] = biological target: T6, CDIP1 induced with doxycycline in MCF-7 Tet-On CDIP1 cells (human) (UniProt Q9H305); experiment: co-IP; MCF-7 Tet-On CDIP1 cells treated with DOX (100 ng/mL, 24 h); HKM buffer, 1% CHAPS; rabbit polyclonal antibody against CDIP1, Protein G magnetic beads; Western blot (Figure 7A; EGTA or CaCl2 not told for this panel)
T6 sequence: T1 sequence

[12] = biological target: T1, GFP-fused CDIP1 (cell death-inducing p53 target protein 1) (human); experiment: co-IP; ALG-2 KO HEK293 cells transfected with GFP-CDIP1, ALG-2 and Myc-tagged ESCRT-I subunits; GFP nanobody; 5 mM EGTA; Western blot with antibodies against GFP, ALG-2 and Myc tag
[13] = biological target: T7, GFP-CDIP1 Mut1 (deletion of residues 62 to 66) (human) (UniProt Q9H305); experiment: co-IP; cleared lysate of transfected HEK293 (HKM buffer, 0.2% Triton X-100); GST-fused GFP nanobody on glutathione beads; 100 uM CaCl2; overnight, 4 C; Western blot
T7 sequence: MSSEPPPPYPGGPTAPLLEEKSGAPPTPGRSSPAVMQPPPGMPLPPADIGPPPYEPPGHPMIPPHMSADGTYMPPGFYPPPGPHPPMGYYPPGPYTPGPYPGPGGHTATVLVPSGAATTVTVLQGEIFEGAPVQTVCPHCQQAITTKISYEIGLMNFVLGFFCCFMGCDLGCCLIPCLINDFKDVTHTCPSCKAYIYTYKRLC

[14] = biological target: VAPB, endogenous in HEK293 cells treated with BFA (human (endogenous in HEK293)) (UniProt O95292); experiment: co-IP; HEK293 treated with BFA (9 h); HKM buffer, 1% CHAPS; rabbit polyclonal antibody against VAPB, Protein G magnetic beads; 5 mM EGTA; Western blot
[15] = biological target: VAPB, endogenous in HEK293 cells treated with BFA (human (endogenous in HEK293)) (UniProt O95292); experiment: co-IP; HEK293 treated with BFA (9 h); HKM buffer, 1% CHAPS; rabbit polyclonal antibody against VAPB, Protein G magnetic beads; 10 uM CaCl2; Western blot
[16] = biological target: T6, CDIP1 induced with doxycycline in MCF-7 Tet-On CDIP1 cells (human); experiment: co-IP; MCF-7 Tet-On CDIP1 cells cultured with DOX; antibody against CDIP1; without addition or with 5 mM EGTA or 10 uM CaCl2; Western blot (Figure 7D)

binding [4]: binds
binding [5]: binds
binding [6]: binds
binding [7]: binds
Substance: Tumor susceptibility gene 101 (TSG101), endogenous in HEK293 cells (from UniProt Q99816 1-390)
binding [1]: binds
binding [2]: binds
binding [3]: binds
binding [8]: binds weakly
binding [9]: binds weakly

Substance: ESCRT-I isocomplex 37C/12B (Myc-TSG101, Myc-VPS28, Myc-VPS37C, Myc-MVB12B) (from UniProt Q99816 1-390; Q9UK41 1-221; A5D8V6 1-355; Q9H7P6 1-319)
binding [10]: binds

binding [11]: binds
Substance: ALG-2, endogenous in MCF-7 Tet-On CDIP1 cells (from UniProt O75340 1-191)

Substance: ESCRT-I isocomplex 37D/UBAP1 (Myc-TSG101, Myc-VPS28, Myc-VPS37D, Myc-UBAP1) (from UniProt Q99816 1-390; Q9UK41 1-221; Q86XT2 1-251; Q9NZ09-1 1-502)
binding [12]: binds
binding [10]: binds

Substance: Annexin A11 (ANXA11), endogenous in HEK293 cells (from UniProt P50995 1-505)
binding [3]: no binding

Substance: ESCRT-I isocomplex 37D/12B (Myc-TSG101, Myc-VPS28, Myc-VPS37D, Myc-MVB12B) (from UniProt Q99816 1-390; Q9UK41 1-221; Q86XT2 1-251; Q9H7P6 1-319)
binding [12]: binds weakly
binding [10]: binds weakly

binding [13]: binds
binding [4]: binds
binding [5]: binds
binding [6]: binds
binding [7]: binds
binding [14]: no binding (condition: with 5 mM EGTA)
binding [15]: binds
Substance: Apoptosis-linked gene 2 (ALG-2), endogenous in HEK293 cells (from UniProt O75340 1-191)
binding [1]: binds
binding [3]: binds
binding [8]: no binding (condition: with 5 mM EGTA)

Substance: Myc-MVB12A (from UniProt Q96EY5 1-273)
binding [12]: no binding
binding [10]: no binding

Substance: ALG-2-interacting protein X (ALIX), endogenous in HEK293 cells (from UniProt Q8WUM4 1-868)
binding [3]: no binding

Substance: MAPK1-interacting and spindle-stabilizing-like (MISSL), endogenous in HEK293 cells (from UniProt Q8NDC0 1-245)
binding [3]: no binding

Substance: ESCRT-I isocomplex 37B/UBAP1 (Myc-TSG101, Myc-VPS28, Myc-VPS37B, Myc-UBAP1) (from UniProt Q99816 1-390; Q9UK41 1-221; Q9H9H4 1-285; Q9NZ09-1 1-502)
binding [10]: binds

binding [16]: binds
Substance: Vesicle-associated membrane protein-associated protein B (VAPB), endogenous in MCF-7 Tet-On CDIP1 cells (from UniProt O95292 1-243)

Substance: ALG-2 expressed from pCDNA3/ALG-2^WT RNAiR in ALG-2 KO HEK293 cells (from UniProt O75340 1-191)
binding [10]: binds

Substance: ESCRT-I isocomplex 37B/12B (Myc-TSG101, Myc-VPS28, Myc-VPS37B, Myc-MVB12B) (from UniProt Q99816 1-390; Q9UK41 1-221; Q9H9H4 1-285; Q9H7P6 1-319)
binding [10]: binds

binding [11]: binds
Substance: TSG101, endogenous in MCF-7 Tet-On CDIP1 cells (from UniProt Q99816 1-390)

binding [4]: binds
binding [5]: no binding
binding [6]: no binding
binding [7]: no binding
Substance: Myc-tagged VAPB (from UniProt O95292 1-243)
binding [3]: binds
